According to the supplement of paper PMC3334620:
In all, about 33,000 sequences were measured (“E-score (-0.5 to 0.5)”: median about -0.035, highest 2% from about 0.35 on). The list shows a part of the results.

biological target: T1, Pdr3 (UniProt P33200); assay: PBM E-score (8-mer binding enrichment) (E-score (-0.5 to 0.5)); higher = stronger / more preferred TF binding; most listed sequences are background and not binding sites; conditions: protein concentration: 200 nM; construct: GST-full length
T1 sequence: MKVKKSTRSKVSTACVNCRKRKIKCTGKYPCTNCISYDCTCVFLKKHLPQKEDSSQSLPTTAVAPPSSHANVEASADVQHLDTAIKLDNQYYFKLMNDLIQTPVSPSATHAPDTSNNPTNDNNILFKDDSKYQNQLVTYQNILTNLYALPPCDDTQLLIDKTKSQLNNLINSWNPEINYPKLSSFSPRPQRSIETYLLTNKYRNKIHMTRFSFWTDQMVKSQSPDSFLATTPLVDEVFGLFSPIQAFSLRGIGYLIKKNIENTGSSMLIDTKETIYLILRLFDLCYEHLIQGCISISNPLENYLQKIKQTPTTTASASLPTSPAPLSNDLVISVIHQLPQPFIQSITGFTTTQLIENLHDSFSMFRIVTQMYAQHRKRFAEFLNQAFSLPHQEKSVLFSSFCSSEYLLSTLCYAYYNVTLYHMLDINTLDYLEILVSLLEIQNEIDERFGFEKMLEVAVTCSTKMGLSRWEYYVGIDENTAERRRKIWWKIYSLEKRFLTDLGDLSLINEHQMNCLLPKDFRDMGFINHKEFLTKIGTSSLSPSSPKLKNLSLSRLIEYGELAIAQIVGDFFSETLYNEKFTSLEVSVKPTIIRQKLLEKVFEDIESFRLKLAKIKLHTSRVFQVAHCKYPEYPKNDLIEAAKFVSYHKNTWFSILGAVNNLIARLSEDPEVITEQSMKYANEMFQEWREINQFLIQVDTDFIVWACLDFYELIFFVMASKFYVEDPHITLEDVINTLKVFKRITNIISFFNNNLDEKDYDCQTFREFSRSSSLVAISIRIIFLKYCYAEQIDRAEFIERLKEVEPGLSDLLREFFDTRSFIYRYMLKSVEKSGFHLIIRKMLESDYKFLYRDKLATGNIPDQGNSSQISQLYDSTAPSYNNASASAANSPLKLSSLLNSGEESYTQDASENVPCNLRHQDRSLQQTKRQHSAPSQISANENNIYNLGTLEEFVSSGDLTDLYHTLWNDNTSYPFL
In short: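 The E-score, a modified Wilcoxon-Mann-Whitney statistic, was computed by the Universal PBM Analysis Suite for every ungapped eight-base word pooled with its reverse complement. Scans behind it were normalised with masliner after bound GST-tagged yeast transcription factors were detected with fluorescent anti-GST. The proteins, at about 100-200 nM, had been applied to universal all-10-mer Agilent arrays made double-stranded by primer extension.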

| Sequence | PBM E-score |
| --- | --- |
| AGGACCCT | -0.253 |
| CGTAAAAA | -0.193 |
| AGACACAA | -0.0591 |
| CTCACGGA | 0.325 |
| ATTGGGAC | 0.0132 |
| ACACTGCC | 0.22 |
| ACAGAGGG | -0.195 |
| ATTGTATC | 0.042 |
| ATCAACCG | 0.0947 |
| CCCCAGGC | -0.112 |
| AATGGCCG | 0.213 |
| ATATCGTG | 0.0693 |
| AAGGAACA | -0.129 |
| GAAGTGCC | 0.0209 |
| CGCACATC | 0.136 |
| CTCTCGTC | -0.039 |
| TATGCATA | -0.314 |
| CTCAGAGA | -0.161 |
| TGGTTAAA | -0.168 |
| ACTTTCCA | -0.0377 |
| CATTTAGA | -0.0113 |
| GGGATTAC | 0.0389 |

| Sequence | PBM E-score |
| --- | --- |
| GTCATCCA | -0.0723 |
| ATTCGGCC | 0.328 |
| ATAAATTA | 0.103 |
| GTTGACGA | -0.0899 |
| CACCATAC | -0.0169 |
| ACCAGTCA | -0.0097 |
| CAGTGCAA | -0.12 |
| GTTTCTAA | -0.134 |
| CAAATTTG | 0.202 |
| TACACCCA | 0.134 |
| GGCGTTTA | -0.111 |
| GTTTACTA | 0.00235 |
| AAGTTAAC | -0.108 |
| CGTATGTC | 0.0348 |
| ACTATCTC | -0.0777 |
| CCAATCCC | 0.146 |
| CAACTCTC | -0.072 |
| GGACATCC | 0.22 |
| CCTTGCGC | 0.0113 |
| CCTACACG | -0.334 |
| ACAGCAGA | -0.126 |
| CCAAAGGG | 0.0192 |

| Sequence | PBM E-score |
| --- | --- |
| ATGTTGAC | 0.0989 |
| GAGTCTAC | -0.3 |
| CAGGGGGA | -0.286 |
| GCTTCCCA | -0.22 |
| CTATCAAC | 0.0811 |
| TTAATGAA | -0.0199 |
| CTATGCTA | -0.186 |
| ATATCGAT | 0.104 |
| AAAGCTTC | -0.0125 |
| GAGTGAGC | -0.14 |
| GGGAACAA | 0.188 |
| CGAGGGAA | 0.116 |
| CTATTGGC | -0.127 |
| AGTCCGCG | 0.364 |
| AAGGTCAG | -0.201 |
| CCCACGAC | -0.139 |
| TCGGGGAA | 0.131 |
| CGGGTTAG | 0.0824 |
| AATTGAGC | -0.135 |
| CCAACTCC | 0.217 |
| ACGAAGAT | -0.145 |
| ACACTGTC | -0.0527 |

| Sequence | PBM E-score |
| --- | --- |
| AAGCACTC | 0.098 |
| GCGGAGCA | 0.304 |
| AATTTCAC | -0.137 |
| ACTCGTCT | -0.0602 |
| ACATCTTA | -0.278 |
| CGCATAGC | -0.0553 |
| CGTTACAG | -0.179 |
| GTTACACA | -0.171 |
| AGGGTTCA | -0.243 |
| CTATTTTA | -0.141 |
| ATCGTTAA | 0.00324 |
| CCAACAAG | -0.165 |
| AGTGGTCC | 0.166 |
| CCTGGTAC | -0.219 |
| GTAATGTA | -0.208 |
| AAGGCTAG | -0.18 |
| CGTTGGCC | 0.035 |
| ACCCTGTA | -0.14 |
| ACTGTACT | -0.303 |
| ATAATAGG | -0.0551 |
